According to paper PMC9885069 (Scientific Reports, 2023):

Description: […] . NPCs were utilized in this initial screen for two reasons; (i) the need to employ a platform composed of CNS cells, and (ii) the higher susceptibility of NPCs to HSV-1 when compared to neurons. Human NPCs were derived from iPSCs as previously described. NPCs were infected with an HSV-1 construct (DualF) expressing enhanced green fluorescent protein (EGFP) and monomeric red fluorescent protein (RFP) under the control of the viral promoters ICP0 and Glycoprotein C, respectively, at a multiplicity of infection (MOI) of 0.1, as detailed in the Experimental section B. The expression of the fluorescent reporter genes EGFP and RFP were considered as proxies of viral gene expression. […] […] . 9001: 424-fold).

COc1ccc2c(c1)[C@H]1C[C@H](O)[C@@H](O)[C@@H](O)[C@@H]1NC2=O [Compound 5, (2S,3R,4S,4aR,10bR)-2,3,4-Trihydroxy-9-methoxy-1,3,4,4a,5,10b-hexahydrophenanthridin-6(2H)-one]
solubility in DMSO: incompletely soluble in DMSO
